B1: ADC46: ADC of Gemtuzumab and M4, average DAR 8 (conjugate, chains of the INN, looked up)
heavy: EVQLVQSGAEVKKPGSSVKVSCKASGYTITDSNIHWVRQAPGQSLEWIGYIYPYNGGTDYNQKFKNRATLTVDNPTNTAYMELSSLRSEDTAFYYCVNGNPWLAYWGQGTLVTVSSASTKGPSVFPLAPCSRSTSESTAALGCLVKDYFPEPVTVSWNSGALTSGVHTFPAVLQSSGLYSLSSVVTVPSSSLGTKTYTCNVDHKPSNTKVDKRV[human IgG4 Fc with S228P (EU numbers) left out]
light: DIQLTQSPSTLSASVGDRVTITCRASESLDNYGIRFLTWFQQKPGKAPKLLMYAASNQGSGVPSRFSGSGSGTEFTLTISSLQPDDFATYYCQQTKEVPWSFGQGTKVEVKRTVAAPSVFIFPPSDEQLKSGTASVVCLLNNFYPREAKVQWKVDNALQSGNSQESVTEQDSKDSTYSLSSTLTLSKADYEKHKVYACEVTHQGLSSPVTKSFNRGEC
modifications: drug-linker M4, DAR 8
B2: ADC47: ADC of Labetuzumab and M4, average DAR 8 (conjugate, chains of the INN, looked up)
heavy: EVQLVESGGGVVQPGRSLRLSCSASGFDFTTYWMSWVRQAPGKGLEWIGEIHPDSSTINYAPSLKDRFTISRDNAKNTLFLQMDSLRPEDTGVYFCASLYFGFPWFAYWGQGTPVTVSSASTKGPSVFPLAPSSKSTSGGTAALGCLVKDYFPEPVTVSWNSGALTSGVHTFPAVLQSSGLYSLSSVVTVPSSSLGTQTYICNVNHKPSNTKVDKRV[human IgG1 Fc left out]
light: DIQLTQSPSSLSASVGDRVTITCKASQDVGTSVAWYQQKPGKAPKLLIYWTSTRHTGVPSRFSGSGSGTDFTFTISSLQPEDIATYYCQQYSLYRSFGQGTKVEIKRTVAAPSVFIFPPSDEQLKSGTASVVCLLNNFYPREAKVQWKVDNALQSGNSQESVTEQDSKDSTYSLSSTLTLSKADYEKHKVYACEVTHQGLSSPVTKSFNRGEC
modifications: drug-linker M4, DAR 8

Assays:
HL-60 = experiment: Cellular Toxicity Test (3) for ADCs; assay type: cell-based; conditions: HL-60, treatment with 333 nM of ADC
Procedure: (§1) In accordance with the method described in Test Example 3 or Test Example 7, cellular toxicities of Example ADCs were measured using the cell types shown in the following table. As an indicator for the cellular toxicity, IC50 or the cell survival rate upon the treatment with 333 nM of ADC was measured. However, for ADC 51, the cell survival rate upon the treatment with 26.6 nM of ADC51 was measured.

LS174T = experiment: Cellular Toxicity Test (3) for ADCs; assay type: cell-based; conditions: treatment with 333 nM of ADC
Procedure: as §1

Molecule | Cell survival rate (%) (HL-60) | Cell survival rate (%) (LS174T)
B1 | 78 | –
B2 | – | 62
